Some targets named below: M17 MAVS (1–180/468–540) (UniProt Q7Z434); M12 MAVS (1–180/441–540) (UniProt Q7Z434); MAVS (91–540) (UniProt Q7Z434); MAVS (181–540) (UniProt Q7Z434).
What all share (assay): co-IP; HEK293 co-transfected with GP73 plasmid and Flag-tagged (or indicated) plasmids for 24 h; lysis in 50 mM Tris-HCl, 150 mM NaCl, 1% Triton X-100, 1 mM EDTA, 10% glycerol, pH 7.4; immunoprecipitated with anti-Flag (or IgG), washed with 300 mM NaCl buffer, WB; Fig 3B, 3C, 4C-F, S4B (for Fig 4C-F the antibodies are only 'indicated')

The chains behind the UniProt entries cited, without tags or fusion partners. Where a name states a change or a piece, a line headed by the entry shows the natural chain unless it says otherwise. A line that says so, or that is headed by a name, gives the form on record, which may keep a tag or linker. Residues count along the entry.
UniProt Q7Z434: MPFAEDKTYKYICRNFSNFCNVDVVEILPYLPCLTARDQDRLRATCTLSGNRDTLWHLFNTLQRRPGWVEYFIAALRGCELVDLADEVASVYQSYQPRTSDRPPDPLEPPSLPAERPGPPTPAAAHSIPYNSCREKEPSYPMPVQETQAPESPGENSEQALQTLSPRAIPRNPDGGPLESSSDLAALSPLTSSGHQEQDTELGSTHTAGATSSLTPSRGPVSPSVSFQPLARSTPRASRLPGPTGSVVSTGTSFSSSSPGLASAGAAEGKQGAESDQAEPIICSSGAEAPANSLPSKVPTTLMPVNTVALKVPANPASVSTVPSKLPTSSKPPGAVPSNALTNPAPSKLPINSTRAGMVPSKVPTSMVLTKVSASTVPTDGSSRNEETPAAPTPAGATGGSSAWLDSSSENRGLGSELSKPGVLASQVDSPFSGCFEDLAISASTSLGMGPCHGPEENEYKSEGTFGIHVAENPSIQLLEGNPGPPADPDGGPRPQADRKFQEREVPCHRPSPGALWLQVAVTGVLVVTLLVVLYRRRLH
MAVS (91–540): residues 91-540 of Q7Z434
MAVS (181–540): residues 181-540 of Q7Z434
M17 MAVS (1–180/468–540) (Q7Z434, form named): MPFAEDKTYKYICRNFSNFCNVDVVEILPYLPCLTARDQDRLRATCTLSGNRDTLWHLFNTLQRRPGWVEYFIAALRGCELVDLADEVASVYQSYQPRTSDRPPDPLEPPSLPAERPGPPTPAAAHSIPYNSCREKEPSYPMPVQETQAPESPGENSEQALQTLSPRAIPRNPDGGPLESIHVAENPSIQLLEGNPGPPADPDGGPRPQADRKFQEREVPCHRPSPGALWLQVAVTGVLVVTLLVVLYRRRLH
M12 MAVS (1–180/441–540) (Q7Z434, form named): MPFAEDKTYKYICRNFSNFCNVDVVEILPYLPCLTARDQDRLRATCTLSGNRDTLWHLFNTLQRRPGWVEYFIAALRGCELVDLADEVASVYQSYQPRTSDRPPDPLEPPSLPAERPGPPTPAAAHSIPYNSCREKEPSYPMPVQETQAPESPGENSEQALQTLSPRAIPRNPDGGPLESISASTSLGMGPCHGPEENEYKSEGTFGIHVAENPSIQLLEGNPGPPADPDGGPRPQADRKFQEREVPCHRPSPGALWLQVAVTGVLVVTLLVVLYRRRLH

No constants are given. Whether binding was seen depends on the method and setting. Binding seen in cells or lysates may run through a third protein. Some binding calls cover weakened binding; strength is not graded here. Sequences can lack the tags named with a protein.

These results are taken from PMC5398727, “GP73 represses host innate immune response to promote virus replication by facilitating MAVS and TRAF6 degradation” (PLoS Pathogens, 2017).

B1: HA-GP73 (Golgi protein 73) (protein, UniProt Q8NBJ4 1-401)
chain: MMGLGNGRRSMKSPPLVLAALVACIIVLGFNYWIASSRSVDLQTRIMELEGRVRRAAAERGAVELKKNEFQGELEKQREQLDKIQSSHNFQLESVNKLYQDEKAVLVNNITTGERLIRVLQDQLKTLQRNYGRLQQDVLQFQKNQTNLERKFSYDLSQCINQMKEVKEQCEERIEEVTKKGNEAVASRDLSENNDQRQQLQALSEPQPRLQAAGLPHTEVPQGKGNVLGNSKSQTPAPSSEVVLDSKRQVEKEETNEIQVVNEEPQRDRLPQEPGREQVVEDRPVGGRGFGGAGELGQTPQVQAALSVSQENPEMEGPERDQLVIPDGQEEEQEAAGEGRNQQKLRGEDDYNMDENEAESETDKQAALAGNDRNIDVFNVEDQKRDTINLLDQREKRNHTL
For B1, the binding entry is listed as “binds weakly” in the assay with M17 MAVS (1–180/468–540), “binds” with M12 MAVS (1–180/441–540), “no binding” with MAVS (91–540) and “no binding” in the assay with MAVS (181–540).
